Measurements taken from the supplement of paper PMC6089552.
Screen size: about 3,200 compounds; about 300 (9.4%) showed activity. This is a selection; strong and weak results do not stand in their true shares.

Test system: A673/TR/shEF
Assay: cell viability (LOESS-normalised, relative to median of negative controls) (log2 ratio); higher = more viable cells (less compound effect), active = hit call of the paper (over 3 MAD below the median)
Details: treatment time: 72 h
How it was run: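 A673/TR/shEF Ewing sarcoma cells (1,500 per well, 384-well plates) were grown with or without doxycycline to induce EWS-FLI1 shRNA knockdown, starting 24 h before compounds. Library compounds at two or more concentrations, with DMSO controls, were added for three days. Cell viability was read by CellTiter-Glo luminescence on an Envision reader, then LOESS-corrected per plate, divided by the median of negative controls and log2-transformed. Hits were wells at least three median absolute deviations from the median of all screened wells.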

[1] = 0.103 µM, library screen: screen3, EWS-FLI1 expression: high (no doxycycline)
[2] = 0.103 µM, library screen: screen3, EWS-FLI1 expression: low (doxycycline-induced shRNA knockdown)
[3] = 0.25 µM, library screen: screen1, EWS-FLI1 expression: high (no doxycycline)
[4] = 0.25 µM, library screen: screen1, EWS-FLI1 expression: low (doxycycline-induced shRNA knockdown)
[5] = 0.308 µM, library screen: screen3, EWS-FLI1 expression: high (no doxycycline)
[6] = 0.308 µM, library screen: screen3, EWS-FLI1 expression: low (doxycycline-induced shRNA knockdown)
[7] = 0.926 µM, library screen: screen3, EWS-FLI1 expression: high (no doxycycline)
[8] = 0.926 µM, library screen: screen3, EWS-FLI1 expression: low (doxycycline-induced shRNA knockdown)
[9] = 2.5 µM, library screen: screen1, EWS-FLI1 expression: high (no doxycycline)
[10] = 2.5 µM, library screen: screen1, EWS-FLI1 expression: low (doxycycline-induced shRNA knockdown)
[11] = 2.8 µM, library screen: screen3, EWS-FLI1 expression: high (no doxycycline)
[12] = 2.8 µM, library screen: screen3, EWS-FLI1 expression: low (doxycycline-induced shRNA knockdown)
[13] = 8.3 µM, library screen: screen3, EWS-FLI1 expression: high (no doxycycline)
[14] = 8.3 µM, library screen: screen3, EWS-FLI1 expression: low (doxycycline-induced shRNA knockdown)
[15] = 25 µM, library screen: screen3, EWS-FLI1 expression: high (no doxycycline)
[16] = 25 µM, library screen: screen3, EWS-FLI1 expression: low (doxycycline-induced shRNA knockdown)
[17] = 0.25 µM, library screen: screen2, EWS-FLI1 expression: high (no doxycycline)
[18] = 0.25 µM, library screen: screen2, EWS-FLI1 expression: low (doxycycline-induced shRNA knockdown)
[19] = 2.5 µM, library screen: screen2, EWS-FLI1 expression: high (no doxycycline)
[20] = 2.5 µM, library screen: screen2, EWS-FLI1 expression: low (doxycycline-induced shRNA knockdown)

Structure (SMILES): C[C@@H]1C[C@H]2[C@@H]3CCC4=CC(=O)C=C[C@]4(C)[C@@]3(F)[C@@H](O)C[C@]2(C)[C@@]1(O)C(=O)CO
- cell viability (log2) [1]: inactive: 0.0598
- cell viability (log2) [2]: inactive: 0.177
- cell viability (log2) [3]: inactive: 0.11
- cell viability (log2) [4]: inactive: -0.0113
- cell viability (log2) [5]: inactive: 0.111
- cell viability (log2) [6]: inactive: 0.103
- cell viability (log2) [7]: inactive: 0.0724
- cell viability (log2) [8]: inactive: 0.168
- cell viability (log2) [9]: inactive: 0.141
- cell viability (log2) [10]: inactive: 0.0408
- cell viability (log2) [11]: inactive: 0.0352
- cell viability (log2) [12]: inactive: 0.11
- cell viability (log2) [13]: inactive: 0.0764
- cell viability (log2) [14]: inactive: 0.0807
- cell viability (log2) [15]: inactive: 0.0649
- cell viability (log2) [16]: inactive: 0.143

Structure (SMILES): Cc1nnc(NS(=O)(=O)c2ccc(N)cc2)s1
- cell viability (log2) [3]: inactive: -0.0282
- cell viability (log2) [4]: inactive: 0.0359
- cell viability (log2) [9]: inactive: 0.106
- cell viability (log2) [10]: inactive: 0.133

Structure (SMILES): COc1cc(NS(C)(=O)=O)ccc1Nc1c2ccccc2nc2ccccc12
- cell viability (log2) [17]: inactive: 0.0671
- cell viability (log2) [18]: inactive: 0.0709
- cell viability (log2) [19]: inactive: 0.127
- cell viability (log2) [20]: inactive: 0.101

Structure (SMILES): CC(=O)Oc1cc2c(c(C)c1OC(C)=O)CC=C1[C@@]2(C)CC[C@@]2(C)[C@@H]3C[C@](C)(C(=O)O)CC[C@]3(C)CC[C@]12C
- cell viability (log2) [3]: inactive: 0.0258
- cell viability (log2) [4]: inactive: 0.000386
- cell viability (log2) [9]: inactive: 0.0381
- cell viability (log2) [10]: inactive: 0.209

Structure (SMILES): CC1CC(OC(=O)C(O)c2ccccc2)CC(C)(C)N1C (centres undefined)
- cell viability (log2) [3]: inactive: 0.097
- cell viability (log2) [4]: inactive: 0.00654
- cell viability (log2) [9]: inactive: 0.168
- cell viability (log2) [10]: inactive: 0.0635

Structure (SMILES): OC[C@H]1O[C@@H](n2cnc3c(NCc4ccco4)ncnc32)[C@H](O)[C@@H]1O
- cell viability (log2) [3]: inactive: 0.0742
- cell viability (log2) [4]: inactive: 0.00708
- cell viability (log2) [9]: inactive: 0.109
- cell viability (log2) [10]: inactive: 0.0328

Structure (SMILES): COc1ccc(CN2CCN(Cc3ccc(OC)c(OC)c3OC)CC2)cc1OC
- cell viability (log2) [3]: inactive: 0.061
- cell viability (log2) [4]: inactive: 0.00924
- cell viability (log2) [9]: inactive: 0.123
- cell viability (log2) [10]: inactive: 0.0982

Structure (SMILES): CCC(=O)c1c(O)cc(O)cc1O
- cell viability (log2) [3]: inactive: 0.0593
- cell viability (log2) [4]: inactive: 0.0934
- cell viability (log2) [9]: inactive: 0.167
- cell viability (log2) [10]: inactive: 0.156

Structure (SMILES): CC1Cc2ccccc2N1NC(=O)c1ccc(Cl)c(S(N)(=O)=O)c1 (centres undefined)
- cell viability (log2) [1]: inactive: 0.0865
- cell viability (log2) [2]: inactive: 0.0898
- cell viability (log2) [3]: inactive: 0.0475
- cell viability (log2) [4]: inactive: 0.0682
- cell viability (log2) [5]: inactive: 0.106
- cell viability (log2) [6]: inactive: 0.108
- cell viability (log2) [7]: inactive: 0.122
- cell viability (log2) [8]: inactive: 0.127
- cell viability (log2) [9]: inactive: 0.165
- cell viability (log2) [10]: inactive: 0.191
- cell viability (log2) [11]: inactive: 0.17
- cell viability (log2) [12]: inactive: 0.0819
- cell viability (log2) [13]: inactive: 0.13
- cell viability (log2) [14]: inactive: 0.112
- cell viability (log2) [15]: inactive: 0.152
- cell viability (log2) [16]: inactive: 0.13

Structure (SMILES): CC(C)(C)[C@]1(O)CCN2C[C@H]3c4ccccc4CCc4cccc(c43)[C@@H]2C1
- cell viability (log2) [17]: inactive: 0.211
- cell viability (log2) [18]: inactive: 0.104
- cell viability (log2) [19]: inactive: 0.187
- cell viability (log2) [20]: inactive: 0.0457

Structure (SMILES): CN1CCN(CCOc2cc(OC3CCOCC3)c3c(Nc4c(Cl)ccc5c4OCO5)ncnc3c2)CC1
- cell viability (log2) [13]: active: -0.339
- cell viability (log2) [14]: active: -0.15
- cell viability (log2) [15]: active: -0.476
- cell viability (log2) [16]: active: -0.808

Structure (SMILES): CO/N=C(\C(=O)N[C@@H]1C(=O)N2C(C(=O)O)=C(COC(N)=O)CS[C@H]12)c1ccco1
- cell viability (log2) [3]: inactive: 0.118
- cell viability (log2) [4]: inactive: 0.097
- cell viability (log2) [9]: inactive: 0.0783
- cell viability (log2) [10]: inactive: 0.119

Structure (SMILES): Nc1ccc(S(=O)(=O)Nc2ccnn2-c2ccccc2)cc1
- cell viability (log2) [3]: inactive: 0.0545
- cell viability (log2) [4]: inactive: -0.0171
- cell viability (log2) [17]: inactive: 0.053
- cell viability (log2) [18]: inactive: 0.048
- cell viability (log2) [9]: inactive: 0.14
- cell viability (log2) [10]: inactive: 0.0403
- cell viability (log2) [19]: active: -0.179
- cell viability (log2) [20]: active: -0.12

Structure (SMILES): COc1c(O)cccc1O
- cell viability (log2) [3]: inactive: 0.0979
- cell viability (log2) [4]: inactive: -0.025
- cell viability (log2) [9]: inactive: 0.121
- cell viability (log2) [10]: inactive: 0.06

Structure (SMILES): O=C(O)C1=CCCNC1
- cell viability (log2) [3]: inactive: -0.0227
- cell viability (log2) [4]: inactive: -0.0335
- cell viability (log2) [17]: inactive: 0.149
- cell viability (log2) [18]: inactive: -0.0225
- cell viability (log2) [9]: inactive: 0.0184
- cell viability (log2) [10]: inactive: 0.124
- cell viability (log2) [19]: inactive: 0.0891
- cell viability (log2) [20]: inactive: 0.0167

Structure (SMILES): Cc1cc(CC(=O)O)n(C)c1C(=O)c1ccc(Cl)cc1
- cell viability (log2) [3]: inactive: -0.016
- cell viability (log2) [4]: inactive: 0.0741
- cell viability (log2) [9]: inactive: 0.104
- cell viability (log2) [10]: inactive: 0.1

Structure (SMILES): NCCNC(=O)c1ncsc1-c1cccc(F)c1
- cell viability (log2) [17]: inactive: 0.314
- cell viability (log2) [18]: inactive: 0.116
- cell viability (log2) [19]: 0.404
- cell viability (log2) [20]: inactive: 0.199

Structure (SMILES): COc1ccccc1N1CCN(CCCCNS(=O)(=O)c2cccc3c(N(C)C)cccc23)CC1
- cell viability (log2) [17]: inactive: 0.171
- cell viability (log2) [18]: inactive: 0.0777
- cell viability (log2) [19]: inactive: 0.0423
- cell viability (log2) [20]: inactive: 0.0929
